# From the supplement of paper PMC8728848
# The other results are listed elsewhere or left out.
# B1: Als1 (Candida albicans), P46590 (protein)
# chain: KTITGVFDSFNSLTWSNAANYAFKGPGYPTWNAVLGWSLDGTSANPGDTFTLNMPCVFKYTTSQTSVDLTADGVKYATCQFYSGEEFTTFSTLTCTVNDALKSSIKAFGTVTLPIAFNVGGTGSSTDLEDSKCFTAGTNTVTFNDGDKDISIDVEFEKSTVDPSGYLYASRVMPSLNKVTTLFVAPQCENGYTSGTMGFSSSNGDVAIDCSNIHIGITKGLNDWNYPVSSESFSYTKTCTSNGIQIKYQNVPAGYRPFIDAYISATDVNQYTLAYTNDYTCAGSRLQSKPFTLRWTGYKNSDAGSNGIVIVATTRTVTDSTTAVTTLPFNPSVDKTKTIEILQPIPTTTITTSYVGVTTSYLTKTAPIGETATVIVDVPYHTTTTVTSEWTGTITTTTTRTNPTDSIDTVVVQVP
# Legend:
# Assay in all cases: glycan array binding signal (z-score within array); higher = stronger binding
# Settings in all cases: glycan notation: IUPAC condensed, linker removed
# Gal(a1-3)GalNAc = biological target: Gal(a1-3)GalNAc
# In short: (§1)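 Glycan array data were curated from 3228 arrays in the Consortium for Functional Glycomics database and kept only where the protein sequence was available. Glycan names were converted to IUPAC-condensed notation, and columns mapping to the same glycan were averaged. The binding signal is a within-array Z-score, averaged across arrays of the same protein sequence at different concentrations or buffers and across linkers. Negative Z-scores can be read as non-binding.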
# [1] = biological target: Gal(a1-3)[Gal(a1-4)]Gal(b1-4)GlcNAc
# In short: as §1
# [2] = biological target: Gal(a1-4)Gal(b1-3)GlcNAc(b1-2)Man(a1-3)[Gal(a1-4)Gal(b1-3)GlcNAc(b1-2)Man(a1-6)]Man(b1-4)GlcNAc(b1-4)GlcNAc
# In short: as §1
# Gal(a1-4)Gal(b1-4)Glc = biological target: Gal(a1-4)Gal(b1-4)Glc
# In short: as §1
# Gal(a1-4)Gal(b1-4)GlcNAc = biological target: Gal(a1-4)Gal(b1-4)GlcNAc
# In short: as §1
# [3] = biological target: Gal(a1-4)Gal(b1-4)GlcNAc(b1-2)Man(a1-3)[Gal(a1-4)Gal(b1-4)GlcNAc(b1-2)Man(a1-6)]Man(b1-4)GlcNAc(b1-4)GlcNAc
# In short: as §1
# [4] = biological target: Gal(a1-4)Gal(b1-4)GlcNAc(b1-3)Gal(b1-4)Glc
# In short: as §1
# Gal(a1-4)GlcNAc = biological target: Gal(a1-4)GlcNAc
# In short: as §1
# Gal(a1-6)Glc = biological target: Gal(a1-6)Glc
# In short: as §1
# Gal(b1-2)Gal = biological target: Gal(b1-2)Gal
# In short: as §1
# Gal(b1-3)Gal = biological target: Gal(b1-3)Gal
# In short: as §1
# Gal(b1-3)Gal(b1-4)GlcNAc = biological target: Gal(b1-3)Gal(b1-4)GlcNAc
# In short: as §1
# Gal(b1-3)GalNAc = biological target: Gal(b1-3)GalNAc
# In short: as §1
# [5] = biological target: Gal(b1-3)GalNAc(a1-3)[Fuc(a1-2)]Gal(b1-4)Glc
# In short: as §1
# [6] = biological target: Gal(b1-3)GalNAc(a1-3)[Fuc(a1-2)]Gal(b1-4)GlcNAc
# In short: as §1
# Gal(b1-3)GalNAc(b1-3)Gal = biological target: Gal(b1-3)GalNAc(b1-3)Gal
# In short: as §1
# [7] = biological target: Gal(b1-3)GalNAc(b1-3)Gal(a1-4)Gal(b1-4)Glc
# In short: as §1
# [8] = biological target: Gal(b1-3)GalNAc(b1-4)Gal(b1-4)Glc
# In short: as §1
# [9] = biological target: Gal(b1-3)GalNAc(b1-4)[Neu5Ac(a2-3)]Gal(b1-4)Glc
# In short: as §1
# Gal(b1-3)GlcNAc = biological target: Gal(b1-3)GlcNAc
# In short: as §1
# [10] = biological target: Gal(b1-3)GlcNAc(a1-3)Gal(b1-4)GlcNAc
# In short: as §1
# [11] = biological target: Gal(b1-3)GlcNAc(a1-6)Gal(b1-4)GlcNAc
# In short: as §1
# Gal(b1-3)GlcNAc(b1-2)Man = biological target: Gal(b1-3)GlcNAc(b1-2)Man
# In short: as §1
# [12] = biological target: Gal(b1-3)GlcNAc(b1-2)Man(a1-3)[Gal(b1-3)GlcNAc(b1-2)Man(a1-6)]Man(b1-4)GlcNAc(b1-4)GlcNAc
# In short: as §1
# [13] = biological target: Gal(b1-3)GlcNAc(b1-2)Man(a1-3)[Gal(b1-3)GlcNAc(b1-2)Man(a1-6)]Man(b1-4)GlcNAc(b1-4)[Fuc(a1-6)]GlcNAc
# In short: as §1
# [14] = biological target: Gal(b1-3)GlcNAc(b1-2)Man(a1-3)[GlcNAc(b1-4)][Gal(b1-3)GlcNAc(b1-2)Man(a1-6)]Man(b1-4)GlcNAc(b1-4)GlcNAc
# In short: as §1
# [15] = biological target: Gal(b1-3)GlcNAc(b1-2)[Gal(b1-3)GlcNAc(b1-6)]Man(a1-6)[Gal(b1-3)GlcNAc(b1-2)Man(a1-3)]Man(b1-4)GlcNAc(b1-4)GlcNAc
# In short: as §1
# [16] = biological target: Gal(b1-3)GlcNAc(b1-3)Gal(b1-3)GlcNAc
# In short: as §1
# [17] = biological target: Gal(b1-3)GlcNAc(b1-3)Gal(b1-4)Glc
# In short: as §1
# [18] = biological target: Gal(b1-3)GlcNAc(b1-3)Gal(b1-4)GlcNAc
# In short: as §1
# [19] = biological target: Gal(b1-3)GlcNAc(b1-3)Gal(b1-4)GlcNAc(b1-2)Man(a1-3)[Gal(b1-3)GlcNAc(b1-3)Gal(b1-4)GlcNAc(b1-2)Man(a1-6)]Man(b1-4)GlcNAc(b1-4)GlcNAc
# In short: as §1
# [20] = biological target: Gal(b1-3)GlcNAc(b1-3)Gal(b1-4)GlcNAc(b1-2)[Gal(b1-3)GlcNAc(b1-3)Gal(b1-4)GlcNAc(b1-6)]Man(a1-6)[Gal(b1-3)GlcNAc(b1-3)Gal(b1-4)GlcNAc(b1-2)Man(a1-3)]Man(b1-4)GlcNAc(b1-4)[Fuc(a1-6)]GlcNAc
# In short: as §1
# [21] = biological target: Gal(b1-3)GlcNAc(b1-3)Gal(b1-4)GlcNAc(b1-3)Gal(b1-4)GlcNAc(b1-2)[Gal(b1-3)GlcNAc(b1-3)Gal(b1-4)GlcNAc(b1-3)Gal(b1-4)GlcNAc(b1-6)]Man(a1-6)[Gal(b1-3)GlcNAc(b1-3)Gal(b1-4)GlcNAc(b1-3)Gal(b1-4)GlcNAc(b1-2)Man(a1-3)]Man(b1-4)GlcNAc(b1-4)[Fuc(a1-6)]GlcNAc
# In short: as §1
# [22] = biological target: Gal(b1-3)GlcNAc(b1-3)Gal(b1-4)GlcNAc(b1-6)[Gal(b1-3)GlcNAc(b1-3)]Gal(b1-4)Glc
# In short: as §1
# [23] = biological target: Gal(b1-3)GlcNAc(b1-3)Gal(b1-4)[Fuc(a1-3)]GlcNAc
# In short: as §1
# [24] = biological target: Gal(b1-3)GlcNAc(b1-3)Gal(b1-4)[Fuc(a1-3)]GlcNAc(b1-6)[Gal(b1-3)GlcNAc(b1-3)]Gal(b1-4)Glc
# In short: as §1
# [25] = biological target: Gal(b1-3)GlcNAc(b1-3)GalNAc
# In short: as §1
# [26] = biological target: Gal(b1-3)GlcNAc(b1-6)Gal(b1-4)GlcNAc
# In short: as §1
binder,measurement,setting,value
B1,glycan array binding signal (z-score),Gal(a1-3)GalNAc,-0.407
same,glycan array binding signal (z-score),[1],-0.781
same,glycan array binding signal (z-score),[2],-0.549
same,glycan array binding signal (z-score),Gal(a1-4)Gal(b1-4)Glc,-0.57
same,glycan array binding signal (z-score),Gal(a1-4)Gal(b1-4)GlcNAc,-0.303
same,glycan array binding signal (z-score),[3],-0.505
same,glycan array binding signal (z-score),[4],-0.568
same,glycan array binding signal (z-score),Gal(a1-4)GlcNAc,-0.611
same,glycan array binding signal (z-score),Gal(a1-6)Glc,-0.227
same,glycan array binding signal (z-score),Gal(b1-2)Gal,-0.234
same,glycan array binding signal (z-score),Gal(b1-3)Gal,-0.458
same,glycan array binding signal (z-score),Gal(b1-3)Gal(b1-4)GlcNAc,-0.058
same,glycan array binding signal (z-score),Gal(b1-3)GalNAc,-0.348
same,glycan array binding signal (z-score),[5],-0.394
same,glycan array binding signal (z-score),[6],-0.578
same,glycan array binding signal (z-score),Gal(b1-3)GalNAc(b1-3)Gal,-0.585
same,glycan array binding signal (z-score),[7],-0.424
same,glycan array binding signal (z-score),[8],-0.41
same,glycan array binding signal (z-score),[9],-0.618
same,glycan array binding signal (z-score),Gal(b1-3)GlcNAc,-0.525
same,glycan array binding signal (z-score),[10],-0.432
same,glycan array binding signal (z-score),[11],-0.456
same,glycan array binding signal (z-score),Gal(b1-3)GlcNAc(b1-2)Man,0.092
same,glycan array binding signal (z-score),[12],-0.233
same,glycan array binding signal (z-score),[13],-0.671
same,glycan array binding signal (z-score),[14],-0.487
same,glycan array binding signal (z-score),[15],-0.432
same,glycan array binding signal (z-score),[16],0.919
same,glycan array binding signal (z-score),[17],-0.736
same,glycan array binding signal (z-score),[18],-0.399
same,glycan array binding signal (z-score),[19],1.32
same,glycan array binding signal (z-score),[20],0.97
same,glycan array binding signal (z-score),[21],0.306
same,glycan array binding signal (z-score),[22],-0.582
same,glycan array binding signal (z-score),[23],-0.629
same,glycan array binding signal (z-score),[24],-0.704
same,glycan array binding signal (z-score),[25],-0.05
same,glycan array binding signal (z-score),[26],-0.706
